Article PMC4336329 (PLoS ONE, 2015)
Screen size: about 310,000 compounds; about 14,000 (4.5%) showed an effect of 50% or more. Effects have a minus sign here. The list shows a part of the results.

Each compound was assayed against human ether-à-go-go-related gene (hERG) potassium channel (human, UniProt Q12809) (assay: primary screen, population patch clamp on CHO cells stably expressing hERG).
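Also: peak tail current of the secondary pulse compared with the same well before compound.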

Chain of human ether-à-go-go-related gene (hERG) potassium channel (Q12809 whole entry, looked up): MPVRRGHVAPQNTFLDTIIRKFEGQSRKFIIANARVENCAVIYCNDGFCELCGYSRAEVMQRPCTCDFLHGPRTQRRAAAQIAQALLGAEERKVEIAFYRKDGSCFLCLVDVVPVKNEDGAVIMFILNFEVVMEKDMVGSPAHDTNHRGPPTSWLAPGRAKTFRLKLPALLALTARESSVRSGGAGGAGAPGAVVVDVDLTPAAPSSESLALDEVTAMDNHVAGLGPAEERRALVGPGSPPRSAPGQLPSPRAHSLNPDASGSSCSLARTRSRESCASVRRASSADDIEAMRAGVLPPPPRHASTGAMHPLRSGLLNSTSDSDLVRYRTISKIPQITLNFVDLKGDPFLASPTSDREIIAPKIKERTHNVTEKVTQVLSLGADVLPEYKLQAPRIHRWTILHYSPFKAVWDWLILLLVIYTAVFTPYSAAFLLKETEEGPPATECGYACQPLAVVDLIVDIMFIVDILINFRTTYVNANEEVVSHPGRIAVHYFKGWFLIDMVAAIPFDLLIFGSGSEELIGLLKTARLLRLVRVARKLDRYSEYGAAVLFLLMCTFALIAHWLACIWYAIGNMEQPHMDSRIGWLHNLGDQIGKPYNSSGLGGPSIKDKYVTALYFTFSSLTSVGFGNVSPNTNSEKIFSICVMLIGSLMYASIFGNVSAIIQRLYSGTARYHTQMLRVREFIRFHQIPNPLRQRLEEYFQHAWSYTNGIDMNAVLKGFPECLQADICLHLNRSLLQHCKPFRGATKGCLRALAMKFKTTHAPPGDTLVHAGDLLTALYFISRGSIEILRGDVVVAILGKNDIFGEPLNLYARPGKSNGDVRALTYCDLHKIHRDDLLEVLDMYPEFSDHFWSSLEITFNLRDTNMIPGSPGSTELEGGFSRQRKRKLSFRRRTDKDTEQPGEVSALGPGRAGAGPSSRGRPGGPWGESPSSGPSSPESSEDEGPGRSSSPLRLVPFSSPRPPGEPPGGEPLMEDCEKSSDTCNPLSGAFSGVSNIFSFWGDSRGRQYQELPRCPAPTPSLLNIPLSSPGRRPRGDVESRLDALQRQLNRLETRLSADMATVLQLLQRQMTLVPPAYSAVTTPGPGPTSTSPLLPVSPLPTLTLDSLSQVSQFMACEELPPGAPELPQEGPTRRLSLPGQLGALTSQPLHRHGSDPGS

Compound | hERG current change (%, negative = inhibition) at 10uM [%]
Cc1c(C(c2ccccc2O)c2c(C)n(C)n(-c3ccccc3)c2=O)c(=O)n(-c2ccccc2)n1C | -10.4
Cc1ccc(S(=O)(=O)N2CCOCC2)cc1C(=O)Nc1ccc2c(c1)CCC2 | -10.6
COC(=O)C(=O)C/C(=N/Nc1ncnc2ccccc12)c1ccc(Cl)cc1 | -9.31
Fc1cccc(Nc2nc(Cl)nc(Cl)n2)c1 | 5.87
Cc1onc(-c2ccccc2)c1C(=O)Nc1nc(-c2ccccc2)cs1 | -12.1
Cn1cc(/C=C/C(=O)N2CCCC(C(=O)c3ccc(C(C)(C)C)cc3)C2)cn1 (centres unmarked) | -27.4
CCOc1ccc(N2CC(C(=O)OCC(=O)NCc3ccccc3)CC2=O)cc1 (centres unmarked) | -38.5
Cc1cc2cc(CN(Cc3cccs3)S(=O)(=O)c3ccc4c(c3)OCCO4)c(=O)[nH]c2cc1C | 8.96
COc1ccc(C(=O)NC(=S)Nc2ccccc2N2CCCCC2)cc1[N+](=O)[O-] | 1.21
N#Cc1c(N)nc(SCC(=O)C23CC4CC(CC(C4)C2)C3)c(C#N)c1-c1ccc(Cl)cc1 | -0.972
O=C(Cc1ccc(-c2ccccc2)cc1)NCc1cccnc1 | -25.9
O=Cc1cn(-c2ccccc2)nc1-c1cc2ccccc2oc1=O | 2.78
Nc1cc(-c2cccc(Br)c2)nn1Cc1ccccc1 | -17.2
CC(=O)Nc1ccc(OCC(O)CN2CCN(c3cc(Cl)ccc3C)CC2)cc1 (centres unmarked) | -30.8
COC(=O)c1ccccc1NC(=O)c1nc2nc(C)cc(C)n2n1 | -1.89
O=C(NCCN1CCOCC1)C1CCC(=O)N1C1CCCCC1 (centres unmarked) | 7.11
Fc1ccc(-n2ncc3c(SCc4cccnc4)ncnc32)cc1 | -5.55
CCn1ncc(-c2cc(C(=O)O)no2)c1C | 18.9
Cc1ccc(Cl)cc1NC(=O)CNCC(c1ccccc1)N(C)C.O=C(O)C(=O)O (centres unmarked) | -30.3
CCC1ON(c2ccccc2)C2c3nc4ccccc4n3CC12 (centres unmarked) | 11.1
Cc1nn(CCC#N)c2nc(-c3ccccc3)cc(C(F)(F)F)c12 | 18.5
C/C(=N\NC(=S)Nc1ccc(F)cc1)c1ccc2c(c1)OCCO2 | -34.7
CCc1cc(=O)[nH]c(SCC(=O)Nc2ccc3c(c2)OCCO3)n1 | 7.62

Compound | hERG current change (%, negative = inhibition) at 10uM [%]
CCCCN(C)CCC(=O)Nc1ccc(F)c(F)c1.Cl | -6.43
CN(Cc1ccno1)Cc1cn(C)nc1-c1ccc(Oc2ccccc2)cc1 | -13.4
COc1ccc(C)cc1NC(=O)CN1C(=O)c2cccc3cccc1c23 | 18.6
O=C(CSc1ccc([N+](=O)[O-])cc1)Nc1cccc(S(=O)(=O)Nc2ccccc2F)c1 | -74.4
CC(=O)c1c(C)[nH]c(C(=O)N2CCC3(CC2)OCCO3)c1C | 17.3
O=C(CSc1ccccn1)NC1CCCC1 | 22
COc1ccc(Br)cc1CNc1ccc2[nH]c(=O)[nH]c2c1 | 15.3
CC/C(CC(C)(C)c1ccccc1)=N\O | -0.0804
CN(C)/C=N/c1ncc(C(=O)c2ccc(-c3ccccc3)cc2)s1 | -1.79
Cc1scc(C(=O)NNC(=S)NC(C)c2ccccc2)c1C (centres unmarked) | 14.8
O=c1nc(/C=C/c2ccccc2C(F)(F)F)cc(C(F)(F)F)[nH]1 | 20.4
Cc1c2cnn(-c3ccccc3)c(=O)c2c(C)n1CCCC(=O)N1CCN(C2CCCCC2)CC1 | -36.7
Cc1c(N=Cc2c(O)n(Cc3ccccc3)c(=O)[nH]c2=O)c(=O)n(-c2ccccc2)n1C | -5.81
Cn1c(=S)[nH]c2sc3c(c2c1=O)CCC(C(C)(C)C)C3 (centres unmarked) | 23.6
O=C1Cc2cc(S(=O)(=O)N3CCCCC3)ccc2N1 | 7.81
CCCCSCCCNC(=O)Nc1cccc(OC)c1 | -3.84
Cc1ccc(N(CC(=O)N2CCc3ccccc3C2)S(C)(=O)=O)cc1 | -1.59
Cc1ccc(C(=O)OC(C)C(=O)Nc2ccc(Cl)cn2)s1 (centres unmarked) | -19.9
COc1ccc(NC(=O)c2c(N)no[n+]2[O-])c(OC)c1 | 20.9
CC1CCCCC1NC(=O)COC(=O)c1ccc(S(=O)(=O)NCc2ccco2)cc1 (centres unmarked) | -9.62
CC(=O)c1ccccc1OC(=O)c1ccc(-c2ccccc2)cc1 | 10.7
COCCNC(=O)COC(=O)/C=C/c1cnc2ccccc2n1 | 6.11
CNC(=S)Nc1ccc(C)c(NC(=S)NC)c1 | -8.07

Compound | hERG current change (%, negative = inhibition) at 10uM [%]
O=c1cc(CSc2nnc(Nc3ccccc3)s2)nc2sccn12 | -27.6
CC(=O)NCCc1nc2cc(NC(=O)c3ccccc3Cl)ccc2n1C | 6.94
Cn1cc(S(=O)(=O)CC(=O)N2CCc3ccccc32)c2ccccc21 | -7.93
Cc1csc(NC(=O)CSc2nnc(CCNC(=O)c3ccc(Cl)c(Cl)c3)n2C)n1 | -3.32
Cc1cc(NC(=O)C2CCCCC2)ccc1NC(=O)c1ccccc1Cl | 4.67
COc1ccc2[nH]cc(CCn3ccc(O)c(C/C=C/c4ccccc4)c3=O)c2c1 | 8.05
COc1ccc(C(=O)CC(=O)C(=O)Nc2ccc(Cl)cc2)cc1 | 7.74
CC(C)=CCCC1=CCC(/C(C)=N/NC(N)=O)CC1 (centres unmarked) | -53.7
COc1cc(C(=O)Nc2ccc3c(c2)OCO3)ccc1OCc1c(C)noc1C | 41.9
O=C(O)C1CC=CCC1C(=O)N1CCN(c2nc(-c3ccccc3)c3ccccc3n2)CC1 (centres unmarked) | -16.8
Cc1cccc(N(Cc2ccccc2)C(=O)c2ccccc2F)c1 | -4.57
Cc1ccc(CN(Cc2ccco2)C(=O)c2ccco2)cc1 | -35.9
Cc1ccc(NC(=O)c2cccc(NC3=NC4CS(=O)(=O)CC4S3)c2)cc1 (centres unmarked) | 12.5
CCOc1ccc(CSC(=N)N)cc1Cl.Cl | -15.2
S=C(NCc1ccco1)Nc1cc(-c2ccccc2)[nH]n1 | -20.9
COc1ccc(NS(=O)(=O)c2cc(C(=O)OC(C)C(=O)N3CCOCC3)ccc2Cl)cc1 (centres unmarked) | -19.6
O=C(N/N=C/C(Br)=C/c1ccccc1)NC1CCCCC1 | 10.7
O=C(COC(=O)c1ccccn1)c1ccc([N+](=O)[O-])cc1 | 2.58
CC(O)c1nc2ccccc2n1CCCOc1ccccc1 (centres unmarked) | -7.48
CCn1c(SCC(=O)Nc2nc(C)cs2)nnc1-c1ccncc1 | 11.2
COc1ccc(F)cc1S(=O)(=O)NCc1cc(=O)n(C)c(=O)n1C | 3.38
CN1CCSc2ccc(C(=O)Nc3cccc(F)c3)cc21 | -30.3
O=C(O)Cn1ncc2ccccc2c1=O | 19.2

Compound | hERG current change (%, negative = inhibition) at 10uM [%]
O=[N+]([O-])c1cnc2ccccc2c1 | -12.7
O=C(NCCC(c1ccccc1)c1ccccc1)c1ccc(Br)o1 | -21.5
CCc1ccc2oc(C(=O)N3CCN(c4ccc(OC)cc4)CC3)cc(=O)c2c1 | -36.7
O=C(Nc1ccccc1)C1CC2CCCC(C1)C2=O (centres unmarked) | -21.1
Cc1ccc(C)c(-n2c(-c3ccc(Br)cc3)csc2=NC(=O)c2ccccc2F)c1 | 26.7
COc1ccc(CCC(=O)OCC(=O)Nc2ccccc2)cc1 | 29.6
COc1ccc(CNC(=O)C(C)Cc2ccccc2)cc1O (centres unmarked) | 13.1
Cc1noc(C)c1S(=O)(=O)N1CCC(C(=O)Nc2ccc(OC(F)(F)F)cc2)CC1 | -11.5
Cc1cc(C)n(-c2ccccc2[N+](=O)[O-])n1 | 20.1
Cc1cccc(NC(=O)CCC2CCN(C(=O)C3CC=CCC3)CC2)c1 (centres unmarked) | -31.5
CC(=O)c1cccc(OCc2cc(C(=O)NC(C)Cc3cccnc3)no2)c1 (centres unmarked) | -6.23
Br.C=CCN1CCc2cccc3c2[C@H]1Cc1ccc(O)c(O)c1-3 | -19.3
CCN(c1cccc(C)c1)c1nc2ccsc2c(=O)s1 | 2.57
CCOc1ccc(/C=C2\SC(=O)N(c3ccc(O)cc3)C2=O)cc1OC | 8.06
Cc1noc(NS(=O)(=O)c2ccc(NC(=O)c3ccc(Br)o3)cc2)c1C | 13.8
Cn1c(=O)c([N+](=O)[O-])c(NCC(O)c2ccccc2)c2ccccc21 (centres unmarked) | -2.03
Cc1cc(C(=O)Cn2nnc3ccccc3c2=O)c(C)n1-c1ccccc1F | 1.45
O=C(CCNS(=O)(=O)c1cccs1)N1CCN(c2cccc(C(F)(F)F)c2)CC1 | -26
CN(C(=O)Nc1ccc(Cl)cc1)n1cnc2ccccc2c1=O | -5.97
CCOC(=O)c1c(NC(=O)CS(=O)(=O)c2cn(CC)c3ccccc23)sc2c1CCCCC2 | 17.9
